{"source": "PubChem BioAssay AID504339", "about": "(National Center for Advancing Translational Sciences (NCATS), 2011)", "note": "About 17,000 (4.4%) of roughly 390,000 compounds were called active. The inconclusive results got no clear call from the source; some entries with a clear call stand among them for comparison. The call rests on the fitted dose curve; in most records, active means well fitted inhibition curve with a large enough effect; inconclusive means small, poorly fitted or top-dose-only effect; inactive means no such curve, though single readings can be large or run the other way. Potencies of inconclusive entries are doubtful fits and often do not repeat. On the % scale 0 is the no-effect control and ±100 the full control effect; potency means the concentration at half of the fitted maximal effect; tags describe the fitted curve by direction and shape.", "data": [{"molecular_target": "Lysine-specific demethylase 4A (Homo sapiens) (UniProt O75164)", "sequence (O75164 whole entry, looked up, the tested form may be a part)": "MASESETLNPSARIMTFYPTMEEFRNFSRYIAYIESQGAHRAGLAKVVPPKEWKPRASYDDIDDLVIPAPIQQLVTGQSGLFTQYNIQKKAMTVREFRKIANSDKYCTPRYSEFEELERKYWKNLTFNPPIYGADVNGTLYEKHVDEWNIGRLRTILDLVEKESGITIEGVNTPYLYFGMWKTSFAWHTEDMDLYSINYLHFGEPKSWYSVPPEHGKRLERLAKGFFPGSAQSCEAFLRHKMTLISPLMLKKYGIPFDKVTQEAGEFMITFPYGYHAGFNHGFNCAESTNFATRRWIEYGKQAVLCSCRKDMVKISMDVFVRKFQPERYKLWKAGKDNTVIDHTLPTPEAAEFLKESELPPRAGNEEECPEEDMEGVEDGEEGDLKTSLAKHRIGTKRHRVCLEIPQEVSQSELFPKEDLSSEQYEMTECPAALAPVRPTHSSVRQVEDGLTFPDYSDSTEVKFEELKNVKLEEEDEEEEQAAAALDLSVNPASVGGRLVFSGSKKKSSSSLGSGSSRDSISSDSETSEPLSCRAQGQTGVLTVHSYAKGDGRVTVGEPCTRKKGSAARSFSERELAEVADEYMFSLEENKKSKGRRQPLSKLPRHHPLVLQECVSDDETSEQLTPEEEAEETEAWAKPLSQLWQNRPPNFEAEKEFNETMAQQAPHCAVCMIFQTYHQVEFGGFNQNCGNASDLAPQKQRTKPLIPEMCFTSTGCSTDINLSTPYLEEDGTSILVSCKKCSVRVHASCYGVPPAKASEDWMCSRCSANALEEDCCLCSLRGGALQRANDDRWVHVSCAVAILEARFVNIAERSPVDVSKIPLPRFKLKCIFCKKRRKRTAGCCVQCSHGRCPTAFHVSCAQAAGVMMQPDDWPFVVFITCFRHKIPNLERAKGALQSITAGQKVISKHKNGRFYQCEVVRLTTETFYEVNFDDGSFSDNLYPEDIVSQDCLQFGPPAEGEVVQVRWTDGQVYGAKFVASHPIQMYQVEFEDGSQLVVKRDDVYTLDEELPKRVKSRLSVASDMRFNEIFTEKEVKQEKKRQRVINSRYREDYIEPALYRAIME", "test": "qHTS Assay for Inhibitors of JMJD2A-Tudor Domain; further: nearly all actives have a fitted effect of over 50% in size", "settings": "AlphaScreen JMJD2A-Tudor / H3K4me3 peptide binding; activity change, negative = inhibition: at 114 µM (top of the series)", "values": [{"smiles": "CCOc1ccc(S(=O)(=O)N(CC)CC)cc1NS(=O)(=O)c1ccc(F)c(F)c1F", "Potency": "active: 50.1 µM"}, {"smiles": "COc1ccccc1NC1=Nc2cccc3cccc1c23", "Potency": "inconclusive: 50.1 µM [inhibitor, partial curve, poor fit]"}, {"smiles": "Cc1ccc(NS(=O)(=O)c2cc([N+](=O)[O-])ccc2NNC(=S)Nc2cc(C)ccc2C)c(C)c1", "Potency": "active: 39.8 µM"}, {"smiles": "CCc1ccc(NC(=O)Cn2c(=O)n(-c3ccc(Cl)c(Cl)c3)c(=O)c3c(C)c(C)sc32)cc1", "Potency": "inactive"}, {"smiles": "O=S(=O)(Nc1ccc(-c2cn3ccsc3n2)cc1)c1ccc2c(c1)OCCO2", "Potency": "inconclusive: 20 µM [inhibitor, full curve]"}, {"smiles": "CCN1CCc2c(sc(N)c2C#N)C1", "activity change, negative = inhibition": "inactive: -15.8% [at 11.4 µM]"}, {"smiles": "CCn1c(SCC(=O)N/N=C/c2ccc(C)o2)nnc1-c1ccc(C)cc1", "Potency": "inconclusive: 70.8 µM [inhibitor, single point]"}, {"smiles": "O=C(Nc1nnc(SCc2ccccc2)s1)c1cccs1", "Potency": "inconclusive: 79.4 µM [inhibitor, single point]"}, {"smiles": "c1ccc(CNCCN2CCNCC2)nc1", "Potency": "inconclusive: 35.5 µM [inhibitor, partial curve]"}, {"smiles": "O=C(NC1CCN(Cc2ccccc2)CC1)c1cc(S(=O)(=O)N2CCOCC2)ccc1Cl", "Potency": "inactive"}, {"smiles": "Oc1ccc(Br)cc1C1C=C(c2ccc3c(c2)OCO3)NC(c2ccc(F)c(Br)c2)N1", "note": "(configuration not stated)", "Potency": "inconclusive: 56.2 µM [inhibitor, partial curve]"}, {"smiles": "C#CCOCCOCCOCCNc1nc(N2CCN(C(=O)CCCCCCCCCCNC(=O)[C@@H](CCSC)n3cc(CCO)nn3)CC2)nc(N2CCN(C(=O)CCCCCCCCCCNC(=O)[C@H]([C@@H](C)CC)n3cc(CCCCN=C(N)N)nn3)CC2)n1", "Potency": "active: 39.8 µM"}, {"smiles": "O=C(CN(C(=O)Cn1nnc(-c2ccc(F)cc2)n1)c1cccc(F)c1)NC1CCCC1", "Potency": "inactive"}, {"smiles": "O=C(Nc1n[nH]c(C(F)(F)F)n1)C1CC1", "Potency": "inconclusive: 4.47 µM [inhibitor, full curve, poor fit]"}, {"smiles": "CC1CCN(C(=O)C2CCN(CC(C)c3ccccc3)CC2)CC1", "note": "(configuration not stated)", "Potency": "inconclusive: 63.1 µM [inhibitor, partial curve, poor fit]"}, {"smiles": "CO/N=C\\CC(=O)Nc1ccc(F)cc1", "Potency": "inactive"}, {"smiles": "COCCNC(=O)CN(Cc1ccc2c(c1)OCO2)C(=O)CCC(=O)Nc1nccs1", "Potency": "active: 28.2 µM"}, {"smiles": "C[C@H](CO)N1C[C@H](C)[C@@H](CN(C)Cc2ccc(-c3ccccc3)cc2)Oc2c(NC(=O)Cc3ccccc3)cccc2C1=O", "Potency": "inconclusive: 35.5 µM [inhibitor, partial curve]"}, {"smiles": "Cc1ccccc1/C=C/c1nc2ccccc2c(=O)[nH]1", "Potency": "inconclusive: 39.8 µM [inhibitor, full curve, poor fit]"}, {"smiles": "COc1ccc(NC(=O)c2c(NCc3cccs3)sc3c2CCC(C)C3)c(OC)c1", "note": "(configuration not stated)", "Potency": "inconclusive: 25.1 µM [inhibitor, full curve, poor fit]"}, {"smiles": "CC(=O)/C(=N\\Nc1ccccc1)Oc1ccc(Br)cc1", "Potency": "inconclusive: 39.8 µM [inhibitor, partial curve]"}, {"smiles": "C/C(=N\\Nc1ccccc1)c1cc2ccccc2oc1=O", "Potency": "inconclusive: 22.4 µM [inhibitor, full curve, poor fit]"}, {"smiles": "COCCN1C(=O)C(=O)/C(=C(/O)c2ccc(S(=O)(=O)N3CCOCC3)cc2)C1c1ccc(OC)c(OC)c1", "note": "(configuration not stated)", "Potency": "inconclusive: 39.8 µM [inhibitor, single point]"}, {"smiles": "S=C(c1ccc(Br)cc1)N1CCN(Cc2ccccc2)CC1", "Potency": "inconclusive: 44.7 µM [inhibitor, partial curve]"}, {"smiles": "NS(=O)(=O)c1ccc(NS(=O)(=O)c2ccc(C3CNC(=O)C3)cc2)cc1", "note": "(configuration not stated)", "Potency": "active: 50.1 µM"}, {"smiles": "O=C(COC(=O)CNC(=O)c1ccc(Cl)cc1Cl)Nc1ccc(N2CCOCC2)cc1", "Potency": "inactive"}, {"smiles": "CCN1C(=NCCCOC(C)C)N[C@@H](CCc2ccccc2)[C@H](C(=O)NCCCOC(C)C)[C@H]1C", "Potency": "inconclusive: 14.1 µM [inhibitor, full curve]"}, {"smiles": "Cc1oc(-c2ccc(Cl)cc2)nc1CN1CCCC(C(=O)NCCc2ccc(Cl)cc2)C1", "note": "(configuration not stated)", "Potency": "inconclusive: 20 µM [inhibitor, full curve]"}, {"smiles": "O=C(/C=C/c1ccc2c(c1)OCO2)c1ccc(O)cc1O", "Potency": "inconclusive: 39.8 µM [inhibitor, partial curve]"}, {"smiles": "CC1CCCCN1C(=O)CNCC1CCCO1", "note": "(configuration not stated)", "Potency": "active: 0.891 µM"}, {"smiles": "COc1cccc(N=C2NC(=O)/C(=C/c3cc([N+](=O)[O-])ccc3O)S2)c1", "Potency": "inconclusive: 50.1 µM [inhibitor, partial curve]"}, {"smiles": "COc1ccc(Br)cc1CNC(=O)CCCc1cn(C)c2ccccc12", "Potency": "inconclusive: 11.2 µM [inhibitor, full curve]"}, {"smiles": "Cc1ccc(C2C=C(c3ccccc3)Nc3ncnn32)cc1", "note": "(configuration not stated)", "Potency": "inconclusive: 20 µM [inhibitor, full curve]"}, {"smiles": "COC(=O)[C@@]1(Cc2ccc(F)cc2)[C@H]2c3cc(C(=O)N(C)C)n(Cc4nc5ccccc5[nH]4)c3C[C@H]2CN1C(=O)c1ccccc1", "Potency": "inconclusive: 50.1 µM [inhibitor, partial curve]"}, {"smiles": "CCC(C(=O)Nc1cccc(Cl)c1C)n1nc(C)c2sc3ccccc3c2c1=O", "note": "(configuration not stated)", "Potency": "inactive"}, {"smiles": "CC1(C)CC(C(=O)NCCC(c2ccccc2)c2ccco2)CCO1", "note": "(configuration not stated)", "Potency": "inconclusive: 89.1 µM [inhibitor, single point]"}, {"smiles": "C[n+]1ccccc1C1CCCC/C1=N\\NC(N)=S", "note": "(configuration not stated)", "Potency": "active: 22.4 µM"}, {"smiles": "COc1ccccc1-c1nc2n(n1)C(c1ccccc1Cl)C(C(=O)Nc1cccnc1)=C(C)N2", "note": "(configuration not stated)", "Potency": "inactive"}, {"smiles": "COc1ccc(N2CCN(C(=O)c3cc(-c4cccs4)nc4ccccc34)CC2)cc1", "Potency": "inconclusive: 15.8 µM [inhibitor, full curve]"}, {"smiles": "CCOC(=O)c1c(/N=C/C2=C(O)CCCC2=O)sc2c1CCCC2", "Potency": "inactive"}, {"smiles": "COc1ccc(CCNC(=O)CCc2c(C)c3cc4c(C)c(C)oc4cc3oc2=O)cc1OC", "Potency": "inactive"}, {"smiles": "CCC12CCCN3CCC4(C(=C(C(=O)OC)C1)Nc1ccccc14)C32", "note": "(configuration not stated)", "Potency": "inconclusive: 28.2 µM [inhibitor, full curve]"}]}]}
